This is an account of results in patent US9012606B2, “In vivo half life increased fusion protein or peptide maintained by sustained in vivo release, and method for increasng in vivo half-life using same” (Alteogen, Inc., priority 2009, dated 2015).

Series [1] can be described thus: Pharmacokinetics of hGH and hGH/alpha-1 antitrypsin fusions (serum ELISA). In kind it is in vivo. The following applies: Sprague-Dawley rats, subcutaneous, 720 μg/kg. How it is done: An anti-human growth hormone monoclonal antibody (Medix Biochemica, Finland) was diluted to a concentration of 1-5 μg/mL in phosphate buffered saline (PBS) and the dilution was aliquoted in an amount of 100 μL/well onto a 96-well plate (Nunc, Denmark) and incubated at room temperature for 15-18 hrs. After the antibody remaining suspended was removed, PBS containing 1% bovine serum albumin was plated in an amount of 250 μL/well and incubated at room temperature for 2 hours. The plates were washed three times with wash buffer (0.05% Tween 20, PBS) and the solution was aspirated. Samples were diluted in PBS containing 1% bovine serum albumin and added to the 96-well plates before incubation at room temperature for 2 hrs. […] To each well was added 100 μL of 1 M sulfuric acid to terminate the reaction, followed by measuring absorbance at 450 nm on a VersaMax microplate reader (Molecular Device, U.S.A.). Values for each sample were calculated by regression analysis after a standard curve was plotted for a reference material.
Sprague-Dawley rats were used as experimental animals and three of them were administered with human growth hormone while five rats were assigned to each of the fusion-administered groups. […] Each sample was analyzed in the same manner as the enzyme immunoassay of Test Example 1.
On the technique in general: An ELISA detects its analyte on a solid surface through an enzyme-linked reagent.

The test system of series [2] is rat lymphoma cell line (NB2 cell). Put plainly: In vitro activity in NB2 cells (MTS method). The following applies: 48 hrs. In kind it is cell-based. The method, then:
The rat lymphoma cell line (NB2 cell) was maintained in RPMI1640 supplemented with 10% HS (Horse serum), 10% FBS, 2-mercaptoethanol and antibiotics at 37° C. under a 5% CO2 condition. For 24 hrs before experiment, NB2 cells were incubated in RPMI 1640 supplemented with 10% HS. Thereafter, the NB2 cells were washed once with 1×DPBS (Dulbecco's Phosphate Buffered Saline), and plated at a density of 2×10^4 cells/100 μL/well in 5% HS-supplemented RPMI 1640 in 96-well plates (Corning, U.S.A.) with final volume of 100 μL. A series of concentrations of the samples were added in an amount of 20 μL to each well of the 96-well plates, followed by incubation at 37° C. for 48 hrs under a 5% CO2 condition. Subsequently, 20 μL of an MTS solution (Promega, U.S.A.) was added to each well of the 96-well plates and allowed to react at 37° C. for 3 hrs under a 5% CO2 condition. The reaction was terminated by adding 20 μL of 10% SDS (sodium dodecyl sulfate) to each well. Absorbance was measured at 490 nm using a VersaMax microplate reader (Molecular Device, U.S.A.).
On the technique in general: Tetrazolium dyes change colour on reduction, which living cells bring about.

B1: human growth hormone/alpha-1 antitrypsin divariant fusion (protein)
chain: EDPQGDAAQKTDTSHHDQDHPTFNKITPNLAEFAFSLYRQLAHQSNSTNIFFSPVSIATAFAMLSLGTKADTHDEILEGLNFNLTEIPEAQIHEGFQELLRTLNQPDSQLQLTTGNGLFLSEGLKLVDKFLEDVKKLYHSEAFTVNFGDTEEAKKQINDYVEKGTQGKIVDLVKELDRDTVFALVNYIFFKGKWERPFEVKDTEEEDFHVDQVTTVKVPMMKRLGMFNIQHCKKLSSWVLLMKYLGNATAIFFLPDEGKLQHLENELTHDIITKFLENEDRRSASLHLPKLSITGTYDLKSVLGQLGITKVFSNGADLSGVTEEAPLKLSKAVHKAVLTIDEKGTEAAGAMFLEAINMTIPPEVKFNKPFVFLMIDQNTKSPLFMGKVVNPTQKGGGGS[sequence of about 200 residues omitted]
modifications: T109T [alpha-1AT(P357N, S359T)/hGH]
notes: hGH fused to C-terminus of alpha-1 antitrypsin divariant P357N, S359T
Regarding B1, in series [1], the “serum half-life (t1/2)” value was determined as 4.9 h and the “time to peak serum concentration (Tmax)” value was determined as 12.8 h. Besides, the EC50 (in general, the midpoint of the concentration-response curve) in series [2] was found to be 0.217 nM.
